Assay results published in publication PMC9911399, “Two distinct binding modes provide the RNA-binding protein RbFox with extraordinary sequence specificity”.
Numbering of substitutions follows the chain as printed; changes in the protein carry UniProt numbers. The list shows a part of the results.

B1: UCCGCCG (DNA:RNA)
RNA: GGGAGACCGGAAUUCAGAUUGUCCUCCGCCGUUAAAUCCCGUCGUAGCCACCA
DNA 1: CAATCTGAATTCCGGTCTCCC
DNA 2: TGGTGGCTACGACGGGATT
B2: UUAUCUU (DNA:RNA)
RNA: B1 RNA with C26U, C27A, G28U, C30U, G31U
DNA 1: CAATCTGAATTCCGGTCTCCC
DNA 2: TGGTGGCTACGACGGGATT
B3: GCAUCGG (DNA:RNA)
RNA: B1 RNA with U25G, C27A, G28U, C30G
DNA 1: CAATCTGAATTCCGGTCTCCC
DNA 2: TGGTGGCTACGACGGGATT
B4: AUGAGAU (DNA:RNA)
RNA: GGGAGACCGGAAUUCAGAUUGUCCAUGAGAUUUAAAUCCCGUCGUAGCCACCA
DNA 1: CAATCTGAATTCCGGTCTCCC
DNA 2: TGGTGGCTACGACGGGATT
B5: CCUCAUU (DNA:RNA)
RNA: B4 RNA with A25C, U26C, G27U, A28C, G29A, A30U
DNA 1: CAATCTGAATTCCGGTCTCCC
DNA 2: TGGTGGCTACGACGGGATT
B6: ACUUGCA (DNA:RNA)
RNA: B4 RNA with U26C, G27U, A28U, A30C, U31A
DNA 1: CAATCTGAATTCCGGTCTCCC
DNA 2: TGGTGGCTACGACGGGATT
B7: GUAAGAG (DNA:RNA)
RNA: B4 RNA with A25G, G27A, U31G
DNA 1: CAATCTGAATTCCGGTCTCCC
DNA 2: TGGTGGCTACGACGGGATT
B8: UUGAGCC (DNA:RNA)
RNA: B4 RNA with A25U, A30C, U31C
DNA 1: CAATCTGAATTCCGGTCTCCC
DNA 2: TGGTGGCTACGACGGGATT
B9: GCUCCUC (DNA:RNA)
RNA: B1 RNA with U25G, C27U, G28C, C30U, G31C
DNA 1: CAATCTGAATTCCGGTCTCCC
DNA 2: TGGTGGCTACGACGGGATT
B10: CUUAACG (DNA:RNA)
RNA: B4 RNA with A25C, G27U, G29A, A30C, U31G
DNA 1: CAATCTGAATTCCGGTCTCCC
DNA 2: TGGTGGCTACGACGGGATT
B11: GUUACAU (DNA:RNA)
RNA: B4 RNA with A25G, G27U, G29C
DNA 1: CAATCTGAATTCCGGTCTCCC
DNA 2: TGGTGGCTACGACGGGATT
B12: GGCUGGA (DNA:RNA)
RNA: B4 RNA with A25G, U26G, G27C, A28U, A30G, U31A
DNA 1: CAATCTGAATTCCGGTCTCCC
DNA 2: TGGTGGCTACGACGGGATT
B13: CGACUUG (DNA:RNA)
RNA: B1 RNA with U25C, C26G, C27A, G28C, C29U, C30U
DNA 1: CAATCTGAATTCCGGTCTCCC
DNA 2: TGGTGGCTACGACGGGATT
B14: AUCUGCA (DNA:RNA)
RNA: B4 RNA with G27C, A28U, A30C, U31A
DNA 1: CAATCTGAATTCCGGTCTCCC
DNA 2: TGGTGGCTACGACGGGATT
B15: GGUAUAG (DNA:RNA)
RNA: B4 RNA with A25G, U26G, G27U, G29U, U31G
DNA 1: CAATCTGAATTCCGGTCTCCC
DNA 2: TGGTGGCTACGACGGGATT
B16: GCCAGAC (DNA:RNA)
RNA: B4 RNA with A25G, U26C, G27C, U31C
DNA 1: CAATCTGAATTCCGGTCTCCC
DNA 2: TGGTGGCTACGACGGGATT
B17: CUUAAUU (DNA:RNA)
RNA: B4 RNA with A25C, G27U, G29A, A30U
DNA 1: CAATCTGAATTCCGGTCTCCC
DNA 2: TGGTGGCTACGACGGGATT
B18: UUAUAUC (DNA:RNA)
RNA: B4 RNA with A25U, G27A, A28U, G29A, A30U, U31C
DNA 1: CAATCTGAATTCCGGTCTCCC
DNA 2: TGGTGGCTACGACGGGATT
B19: CGAAUCG (DNA:RNA)
RNA: B1 RNA with U25C, C26G, C27A, G28A, C29U
DNA 1: CAATCTGAATTCCGGTCTCCC
DNA 2: TGGTGGCTACGACGGGATT
B20: UGUGAGA (DNA:RNA)
RNA: B1 RNA with C26G, C27U, C29A, C30G, G31A
DNA 1: CAATCTGAATTCCGGTCTCCC
DNA 2: TGGTGGCTACGACGGGATT
B21: CGAAUGG (DNA:RNA)
RNA: B4 RNA with A25C, U26G, G27A, G29U, A30G, U31G
DNA 1: CAATCTGAATTCCGGTCTCCC
DNA 2: TGGTGGCTACGACGGGATT
B22: UCUCUUA (DNA:RNA)
RNA: B1 RNA with C27U, G28C, C29U, C30U, G31A
DNA 1: CAATCTGAATTCCGGTCTCCC
DNA 2: TGGTGGCTACGACGGGATT
B23: UGCGUUG (DNA:RNA)
RNA: B1 RNA with C26G, C29U, C30U
DNA 1: CAATCTGAATTCCGGTCTCCC
DNA 2: TGGTGGCTACGACGGGATT
B24: GUACGAU (DNA:RNA)
RNA: B4 RNA with A25G, G27A, A28C
DNA 1: CAATCTGAATTCCGGTCTCCC
DNA 2: TGGTGGCTACGACGGGATT
B25: UGCCAUA (DNA:RNA)
RNA: B1 RNA with C26G, G28C, C29A, C30U, G31A
DNA 1: CAATCTGAATTCCGGTCTCCC
DNA 2: TGGTGGCTACGACGGGATT
B26: ACCCCUC (DNA:RNA)
RNA: B1 RNA with U25A, G28C, C30U, G31C
DNA 1: CAATCTGAATTCCGGTCTCCC
DNA 2: TGGTGGCTACGACGGGATT
B27: UAAUGAG (DNA:RNA)
RNA: B4 RNA with A25U, U26A, G27A, A28U, U31G
DNA 1: CAATCTGAATTCCGGTCTCCC
DNA 2: TGGTGGCTACGACGGGATT
B28: CAUAUUC (DNA:RNA)
RNA: B4 RNA with A25C, U26A, G27U, G29U, A30U, U31C
DNA 1: CAATCTGAATTCCGGTCTCCC
DNA 2: TGGTGGCTACGACGGGATT
B29: CCAAUCU (DNA:RNA)
RNA: B4 RNA with A25C, U26C, G27A, G29U, A30C
DNA 1: CAATCTGAATTCCGGTCTCCC
DNA 2: TGGTGGCTACGACGGGATT
B30: GUGCGGG (DNA:RNA)
RNA: B4 RNA with A25G, A28C, A30G, U31G
DNA 1: CAATCTGAATTCCGGTCTCCC
DNA 2: TGGTGGCTACGACGGGATT
B31: AACGAGC (DNA:RNA)
RNA: B1 RNA with U25A, C26A, C29A, C30G, G31C
DNA 1: CAATCTGAATTCCGGTCTCCC
DNA 2: TGGTGGCTACGACGGGATT

Molecular target: T1, RBFOX1 RRM RbFoxmut (Fox-RRM*) (Homo sapiens, UniProt Q9NWB1 109-208, R118D;E147R;N151S;E152T)
T1 sequence: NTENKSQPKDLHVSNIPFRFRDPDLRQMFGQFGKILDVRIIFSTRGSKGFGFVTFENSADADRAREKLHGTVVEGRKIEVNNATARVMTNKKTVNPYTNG
Assay: EMSA; HiTS-Eq, 1 nM pool, 10 min; buffer printed only for the single-RNA assays: 10 mM Tris pH 7.5, 150 mM NaCl, 3.4 mM EDTA, 0.001% NP-40, 30 C
Conditions: tags: His6 N-terminal (pET28a); label: 5' 32P
Method in brief: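 A pool of RNA with 7 randomized nucleotides, 5′-radiolabelled and with DNA-annealed flanks, was equilibrated at 1 nM for 10 min in 50 µL with purified RbFox RRM, wild type or mutant, across increasing protein concentrations. Free RNA was separated by 8% native PAGE, excised, reverse-transcribed, barcoded by PCR and sequenced. Relative association constants were obtained from read-count changes of each RNA species versus the control reaction and normalised to the cognate motif.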

| Binder | binding signal |
| --- | --- |
| B1 | 0.0854 KA relative to UGCAUGU |
| B2 | 0.0791 KA relative to UGCAUGU |
| B3 | 0.454 KA relative to UGCAUGU |
| B4 | 0.0957 KA relative to UGCAUGU |
| B5 | 0.0805 KA relative to UGCAUGU |
| B6 | 0.224 KA relative to UGCAUGU |
| B7 | 0.0889 KA relative to UGCAUGU |
| B8 | 0.218 KA relative to UGCAUGU |
| B9 | 0.0556 KA relative to UGCAUGU |
| B10 | 0.129 KA relative to UGCAUGU |
| B11 | 0.11 KA relative to UGCAUGU |
| B12 | 0.0732 KA relative to UGCAUGU |
| B13 | 0.155 KA relative to UGCAUGU |
| B14 | 0.196 KA relative to UGCAUGU |
| B15 | 0.113 KA relative to UGCAUGU |
| B16 | 0.0758 KA relative to UGCAUGU |

| Binder | binding signal |
| --- | --- |
| B17 | 0.0834 KA relative to UGCAUGU |
| B18 | 0.102 KA relative to UGCAUGU |
| B19 | 0.374 KA relative to UGCAUGU |
| B20 | 0.138 KA relative to UGCAUGU |
| B21 | 0.72 KA relative to UGCAUGU |
| B22 | 0.131 KA relative to UGCAUGU |
| B23 | 0.324 KA relative to UGCAUGU |
| B24 | 0.101 KA relative to UGCAUGU |
| B25 | 0.122 KA relative to UGCAUGU |
| B26 | 0.074 KA relative to UGCAUGU |
| B27 | 0.0885 KA relative to UGCAUGU |
| B28 | 0.0821 KA relative to UGCAUGU |
| B29 | 0.0623 KA relative to UGCAUGU |
| B30 | 0.106 KA relative to UGCAUGU |
| B31 | 0.0667 KA relative to UGCAUGU |
